This assay relates to V-C8 (BRCA2-deficient hamster cells). The assay is described as follows: normalised cell viability (fraction of plate median); higher = more viable cells (less toxic). As to conditions: 5 µM. In short, it runs like this: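 In two screens, library drugs at 5 μM were given for 3 days (screen 1) or 6 days (screen 2) to hamster V-C8 cells without BRCA2 and V-C8 cells with BRCA2 restored, seeded 24 h earlier in 96-well plates. A resazurin assay gave the cell viability readout, expressed as modified robust per cent of sample against the plate median, with triplicate wells averaged.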

Where a name gives a salt, the structure may show the parent alone. ± gives the standard deviation of the averaged measurements. Whole data set: some 1,300 compounds, median “normalised cell viability” near 1, cut for the lowest 2% near 0.14. The list shows a part of the results.

In the case of `Cc1cccc(C)c1NC(=O)C(C)N` (configuration not stated) [Tocainide hydrochloride], the normalised cell viability is 1.05 ± 0.017 (treatment time: 3 days) and 1.09 ± 0.061 (treatment time: 6 days).
As for `CN(C)C(=O)C(CCN1CCC(O)(c2ccc(Cl)cc2)CC1)(c1ccccc1)c1ccccc1` [Loperamide hydrochloride], the normalised cell viability reads like this: (treatment time: 3 days) 0.492 ± 0.027; (treatment time: 6 days) 0.452 ± 0.024.
In the same order, the values of `O=C(OCC(O)CO)c1ccccc1Nc1ccnc2cc(Cl)ccc12` (configuration not stated) [Glafenine hydrochloride] are 1 ± 0.056 and 0.972 ± 0.034.
Compound `CC(C(=O)O)c1ccc(-c2ccccc2)c(F)c1` (configuration not stated) [Flurbiprofen] gave a normalised cell viability (treatment time: 3 days) of 1.01 ± 0.025 and a normalised cell viability (treatment time: 6 days) of 0.991 ± 0.027.
In the case of `COc1cc([S+](C)[O-])ccc1-c1nc2cccnc2[nH]1` (configuration not stated) [Sulmazole], the normalised cell viability (treatment time: 3 days) was found to be 1.06 ± 0.037 and the normalised cell viability (treatment time: 6 days) turned out to be 1.03 ± 0.13.
Turning to `C[C@H]1O[C@@H](O[C@H]2[C@@H](O)C[C@H](O[C@H]3[C@@H](O)C[C@H](O[C@H]4CC[C@@]5(C)[C@H](CC[C@@H]6[C@@H]5C[C@@H](O)[C@]5(C)[C@@H](C7=CC(=O)OC7)CC[C@]65O)C4)O[C@@H]3C)O[C@@H]2C)C[C@H](O)[C@@H]1O` [Digoxin], the normalised cell viability runs as follows: (treatment time: 3 days) 1.002 ± 0.0042; (treatment time: 6 days) 0.931 ± 0.027.
As to `CC(=O)[C@H]1CC[C@H]2[C@@H]3C=CC4=CC(=O)CC[C@@]4(C)[C@@H]3CC[C@]12C` [Dydrogesterone], the normalised cell viability runs as follows: (treatment time: 3 days) 1.04 ± 0.015; (treatment time: 6 days) 1.12 ± 0.012.
On to `NC[C@@H]1O[C@H](O[C@H]2[C@@H](O)[C@H](O[C@@H]3[C@@H](O)[C@H](N)C[C@H](N)[C@H]3O[C@H]3O[C@H](CO)[C@@H](O)[C@H](O)[C@H]3N)O[C@@H]2CO)[C@H](N)[C@@H](O)[C@@H]1O` [Paromomycin sulfate], for which the normalised cell viability is, setting by setting: (treatment time: 3 days) 1.02 ± 0.0077; (treatment time: 6 days) 1.05 ± 0.025.
In the same order, the values of `COc1ccccc1OCC(O)CO` (configuration not stated) [Guaifenesin] are 1.05 ± 0.022 and 0.974 ± 0.16.
For `Cc1cccc(C)c1OCC(C)N` (configuration not stated) [Mexiletine hydrochloride], the normalised cell viability by setting is: (treatment time: 3 days) 0.915 ± 0.09; (treatment time: 6 days) 0.985 ± 0.066.
On to `CN1[C@@H]2CC[C@H]1C[C@@H](OC(=O)c1c[nH]c3ccccc13)C2` [Tropisetron HCl], for which the normalised cell viability stood at 1.08 ± 0.056 (treatment time: 3 days) and 1.27 ± 0.015 (treatment time: 6 days).
In the case of `CCOC(=O)C1=C(COCCN)NC(C)=C(C(=O)OC)C1c1ccccc1Cl` (configuration not stated) [Amlodipine], the normalised cell viability (treatment time: 3 days) was determined as 0.874 ± 0.12 and the normalised cell viability (treatment time: 6 days) is 0.844 ± 0.046.
As to `COc1ccc(/C=C/C(=O)Nc2ccccc2C(=O)O)cc1OC` [Tranilast], the normalised cell viability runs as follows: (treatment time: 3 days) 0.949 ± 0.048; (treatment time: 6 days) 1.05 ± 0.025.
The compound `Cc1c(N(C)C)c(=O)n(-c2ccccc2)n1C` [Amidopyrine] showed a normalised cell viability (treatment time: 3 days) of 0.97 ± 0.012 and a normalised cell viability (treatment time: 6 days) of 0.987 ± 0.052.
Consider `Oc1c(Cl)cc(Cl)c(Cl)c1Cc1c(O)c(Cl)cc(Cl)c1Cl` [Hexachlorophene], for which the normalised cell viability reads like this: (treatment time: 3 days) 0.558 ± 0.038; (treatment time: 6 days) 0.592 ± 0.066.
Regarding `CC[C@H](C)[C@H](N)C1=N[C@H](C(=O)N[C@@H](CC(C)C)C(=O)N[C@H](CCC(=O)O)C(=O)N[C@H](C(=O)N[C@H]2CCCCNC(=O)[C@H](CC(N)=O)NC(=O)[C@@H](CC(=O)O)NC(=O)[C@H](Cc3cnc[nH]3)NC(=O)[C@@H](Cc3ccccc3)NC(=O)[C@H]([C@@H](C)CC)NC(=O)[C@@H](CCCN)NC2=O)[C@@H](C)CC)CS1` [Bacitracin], the normalised cell viability is, setting by setting: (treatment time: 3 days) 1.05 ± 0.02; (treatment time: 6 days) 0.983 ± 0.061.
For the compound `CN1CCN(CCCN2c3ccccc3Sc3ccc(C(F)(F)F)cc32)CC1` [Trifluoperazine dihydrochloride], the normalised cell viability was 0.618 ± 0.023 (treatment time: 3 days) and 0.688 ± 0.02 (treatment time: 6 days).
For `COc1ccc(OC)c(C(O)CNC(=O)CN)c1` (configuration not stated) [Midodrine hydrochloride], the normalised cell viability is 0.991 ± 0.086 (treatment time: 3 days) and 1.07 ± 0.069 (treatment time: 6 days).
Take `CN(C)CCN1C(=O)c2ccccc2N(C)c2ccccc21` [Dibenzepine hydrochloride]: the normalised cell viability was found to be 0.191 ± 0.011 (treatment time: 3 days) and 0.215 ± 0.0073 (treatment time: 6 days).
As for `CN(C(=O)C(Cl)Cl)c1ccc(OC(=O)c2ccco2)cc1` [Diloxanide furoate], the normalised cell viability was 1.02 ± 0.036 (treatment time: 3 days) and 1 ± 0.038 (treatment time: 6 days).
Taken in the same sequence, the figures for `Nc1ccn([C@H]2CC[C@@H](CO)O2)c(=O)n1` [Zalcitabine] were 1.02 ± 0.059 and 1.04 ± 0.044.
Taken in the same sequence, the figures for `Oc1c(I)cc(Cl)c2cccnc12` [Clioquinol] were 0.847 ± 0.052 and 0.949 ± 0.026.
In the case of `CC(C)(C#N)c1cc(Cn2cncn2)cc(C(C)(C)C#N)c1` [Anastrozole], the normalised cell viability reads like this: (treatment time: 3 days) 1.01 ± 0.016; (treatment time: 6 days) 1.01 ± 0.082.
With `CN(C)CCOC(C)(c1ccccc1)c1ccccn1` (configuration not stated) [Doxylamine succinate], the normalised cell viability is, setting by setting: (treatment time: 3 days) 1.03 ± 0.019; (treatment time: 6 days) 1.05 ± 0.017.
For the compound `CC(=O)c1ccc2c(c1)N(CCCN(C)C)c1ccccc1S2` [Acetopromazine maleate salt], the normalised cell viability by setting is: (treatment time: 3 days) 1.06 ± 0.035; (treatment time: 6 days) 1.02 ± 0.059.
`O=C(C1CCCCC1)N1CC(=O)N2CCc3ccccc3C2C1` (configuration not stated) [Praziquantel] gave a normalised cell viability (treatment time: 3 days) of 1.11 ± 0.077 and a normalised cell viability (treatment time: 6 days) of 1 ± 0.23.
In the case of `C(=C\c1ccccc1)/CN1CCN(C(c2ccccc2)c2ccccc2)CC1` [Cinnarizine], the normalised cell viability is, setting by setting: (treatment time: 3 days) 0.976 ± 0.044; (treatment time: 6 days) 0.983 ± 0.076.
For `COc1ccc2c(c1)c(CC(=O)O)c(C)n2C(=O)c1ccc(Cl)cc1` [Indomethacin], the normalised cell viability reads like this: (treatment time: 3 days) 1.08 ± 0.1; (treatment time: 6 days) 1.02 ± 0.068.
Consider `CN1CCC(=C2c3ccccc3CCc3cccnc32)CC1` [Azatadine maleate], for which the normalised cell viability came out at 1.14 ± 0.033 (treatment time: 3 days) and 1.07 ± 0.084 (treatment time: 6 days).
`Nc1nc2ccc(OC(F)(F)F)cc2s1` [Riluzole hydrochloride] returned a normalised cell viability (treatment time: 3 days) of 0.972 ± 0.052 and a normalised cell viability (treatment time: 6 days) of 0.949 ± 0.046.
Turning to `CC(C)(C)NCC(O)COc1cccc2c1CCC(=O)N2` (configuration not stated) [Carteolol hydrochloride], the normalised cell viability is 1.07 ± 0.022 (treatment time: 3 days) and 1 ± 0.031 (treatment time: 6 days).
